{"source": "the supplement of paper PMC3334620", "note": "Whole data set: some 33,000 sequences, median “E-score (-0.5 to 0.5)” near -0.01, cut for the highest 2% near 0.26. Some of the results follow."}
{"biological_target": "Ste12 (UniProt P13574)", "experiment": "PBM E-score (8-mer binding enrichment) (E-score (-0.5 to 0.5)); higher = stronger / more preferred TF binding; most listed sequences are background and not binding sites", "conditions": "protein concentration: 200 nM; construct: GST-DNA-binding domain", "experimental": "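Universal 'all 10-mer' protein binding microarrays (Agilent AMADID 015681) probed with GST-tagged S. cerevisiae TFs (full-length or DBD) made by in vitro transcription/translation (PURExpress), about 100-200 nM. Bound TF was detected with fluorescent anti-GST. Each ungapped 8-mer (which stands for itself and its reverse complement) is scored by the PBM enrichment score (E-score), a modified Wilcoxon-Mann-Whitney statistic from -0.5 to +0.5, computed with the Universal PBM Analysis Suite. Scale: above 0.35 generally sequence-specific binding.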"}
{"sequence": "AGGTCACC", "PBM E-score": -0.313}
{"sequence": "AGCCAGAG", "PBM E-score": 0.00321}
{"sequence": "AGATCATG", "PBM E-score": -0.223}
{"sequence": "ACGCCGGG", "PBM E-score": -0.00121}
{"sequence": "ACCCAGCT", "PBM E-score": -0.071}
{"sequence": "CGTGTTAC", "PBM E-score": 0.0162}
{"sequence": "AGGGCATA", "PBM E-score": -0.0532}
{"sequence": "TACAGGCA", "PBM E-score": -0.0816}
{"sequence": "GTGTACAC", "PBM E-score": -0.224}
{"sequence": "ATTAAATC", "PBM E-score": 0.248}
{"sequence": "GTATAATA", "PBM E-score": 0.119}
{"sequence": "ATTGATTA", "PBM E-score": 0.169}
{"sequence": "ACGTCGCC", "PBM E-score": 0.096}
{"sequence": "ACCGGGGG", "PBM E-score": -0.274}
{"sequence": "GTCCTAAA", "PBM E-score": 0.0583}
{"sequence": "GTGAGTAA", "PBM E-score": 0.0208}
{"sequence": "ATATCAAT", "PBM E-score": 0.21}
{"sequence": "ACATCTGA", "PBM E-score": -0.24}
{"sequence": "CGAAGTAA", "PBM E-score": 0.0731}
{"sequence": "GCGATACA", "PBM E-score": -0.211}
{"sequence": "ATGGCCCC", "PBM E-score": -0.0581}
{"sequence": "ATCCTCTG", "PBM E-score": -0.0949}
{"sequence": "AATTGCAT", "PBM E-score": 0.0393}
{"sequence": "CTAGATAA", "PBM E-score": 0.0399}
{"sequence": "CCGCGCTA", "PBM E-score": 0.0861}
{"sequence": "ACGTGTAT", "PBM E-score": -0.045}
{"sequence": "AACACTAG", "PBM E-score": 0.0717}
{"sequence": "ATACGGCA", "PBM E-score": 0.116}
{"sequence": "ATGAGTTA", "PBM E-score": -0.0873}
{"sequence": "AAATTTCC", "PBM E-score": 0.00403}
{"sequence": "AGTAGGAT", "PBM E-score": -0.0907}
{"sequence": "ATACTAGA", "PBM E-score": 0.103}
{"sequence": "TTCCAAAA", "PBM E-score": 0.277}
{"sequence": "CGCGGGTA", "PBM E-score": 0.0349}
{"sequence": "AACGACTG", "PBM E-score": -0.0997}
{"sequence": "AGCTGCAT", "PBM E-score": -0.275}
{"sequence": "CACCTACG", "PBM E-score": -0.125}
{"sequence": "GTTCCATA", "PBM E-score": 0.145}
{"sequence": "ACAAATGT", "PBM E-score": 0.101}
{"sequence": "CAGCAAGG", "PBM E-score": -0.117}
{"sequence": "GAGGAAGA", "PBM E-score": 0.151}
{"sequence": "AGGGATGA", "PBM E-score": -0.0593}
{"sequence": "CAGAATTA", "PBM E-score": 0.123}
{"sequence": "CAGTGGCA", "PBM E-score": -0.108}
{"sequence": "CTCGCGTA", "PBM E-score": -0.0404}
{"sequence": "GATGTGGC", "PBM E-score": -0.115}
{"sequence": "GTGTACCA", "PBM E-score": -0.0971}
{"sequence": "CCAGGACC", "PBM E-score": -0.124}
{"sequence": "ATTCACTA", "PBM E-score": -0.0173}
{"sequence": "GAGCGGAC", "PBM E-score": -0.175}
{"sequence": "TATATCGA", "PBM E-score": 0.232}
{"sequence": "TGCACCCA", "PBM E-score": -0.0545}
{"sequence": "CCAACCCC", "PBM E-score": 0.155}
{"sequence": "ACCATTAC", "PBM E-score": 0.0314}
{"sequence": "CAACGTGG", "PBM E-score": -0.0597}
{"sequence": "ATAGGGTC", "PBM E-score": -0.0645}
{"sequence": "AGGTAGAC", "PBM E-score": -0.14}
{"sequence": "CGAAAGCA", "PBM E-score": -0.0179}
{"sequence": "GACTTCTC", "PBM E-score": -0.172}
{"sequence": "CATTGTCA", "PBM E-score": 0.036}
{"sequence": "CTAACGAC", "PBM E-score": -0.115}
{"sequence": "ACTGTGCC", "PBM E-score": -0.218}
{"sequence": "AAGATCCG", "PBM E-score": -0.192}
{"sequence": "GGTTTAGA", "PBM E-score": 0.175}
{"sequence": "ATCCATGC", "PBM E-score": -0.082}
{"sequence": "CCAACGTA", "PBM E-score": -0.0608}
{"sequence": "CCCTGAGA", "PBM E-score": -0.0977}
{"sequence": "CGAGGCCC", "PBM E-score": -0.0445}
{"sequence": "GGACAACC", "PBM E-score": 0.00984}
{"sequence": "AACCTCCG", "PBM E-score": -0.101}
{"sequence": "TGAAACAA", "PBM E-score": 0.493}
{"sequence": "TACGCAGA", "PBM E-score": -0.0364}
{"sequence": "ATCTGGGG", "PBM E-score": -0.207}
{"sequence": "CGTAAGAC", "PBM E-score": -0.117}
{"sequence": "GCGTCCCA", "PBM E-score": 0.162}
{"sequence": "AAAGCCCT", "PBM E-score": -0.13}
{"sequence": "TAGTATAA", "PBM E-score": 0.109}
{"sequence": "GCGTGGTA", "PBM E-score": 0.0425}
{"sequence": "ACGAGGAA", "PBM E-score": 0.162}
{"sequence": "ACGCGACT", "PBM E-score": -0.133}
{"sequence": "ATCACCTC", "PBM E-score": -0.0665}
{"sequence": "GTAGGGGA", "PBM E-score": -0.127}
{"sequence": "ATGCCAAT", "PBM E-score": 0.0487}
{"sequence": "AGCGTCCC", "PBM E-score": 0.0544}
{"sequence": "GAATAAAC", "PBM E-score": 0.24}
{"sequence": "GTTTACCA", "PBM E-score": -0.0517}
{"sequence": "ATCGATAG", "PBM E-score": -0.0348}
{"sequence": "CATCTTAG", "PBM E-score": 0.00228}
{"sequence": "ATCTCGGG", "PBM E-score": -0.00442}
{"sequence": "GCAGACCA", "PBM E-score": -0.217}
{"sequence": "ACGCGACA", "PBM E-score": 0.0537}
{"sequence": "GCACTTTA", "PBM E-score": 0.00477}
{"sequence": "ACTCCTGC", "PBM E-score": -0.0873}
{"sequence": "AAGCAGAG", "PBM E-score": -0.0736}
{"sequence": "AAGGCCTT", "PBM E-score": -0.172}
{"sequence": "CTTGTTAC", "PBM E-score": 0.129}
{"sequence": "ATGGTTAA", "PBM E-score": -0.101}
{"sequence": "CGACTACC", "PBM E-score": -0.26}
{"sequence": "ATGCGACC", "PBM E-score": 0.0993}
{"sequence": "GCATCCAA", "PBM E-score": -0.218}
{"sequence": "ACTAGCTC", "PBM E-score": -0.0963}
{"sequence": "GCGCGTCA", "PBM E-score": 0.125}
{"sequence": "CCGTCTCA", "PBM E-score": 0.0687}
{"sequence": "AATTTATA", "PBM E-score": 0.274}
{"sequence": "CATGAAGG", "PBM E-score": -0.0613}
{"sequence": "ATTGGAGG", "PBM E-score": -0.0921}
{"sequence": "CATTCGGG", "PBM E-score": -0.0997}
{"sequence": "AGCAAGTG", "PBM E-score": -0.108}
{"sequence": "CAATACGG", "PBM E-score": 0.0201}
{"sequence": "CCGTCGCA", "PBM E-score": 0.176}
{"sequence": "CAGGCTTC", "PBM E-score": -0.0885}
{"sequence": "CAGTACAG", "PBM E-score": -0.104}
{"sequence": "AATTAGTC", "PBM E-score": 0.218}
{"sequence": "AATCCCCT", "PBM E-score": 0.129}
{"sequence": "GCCCAACA", "PBM E-score": -0.05}
{"sequence": "AGCTGATG", "PBM E-score": 0.129}
{"sequence": "CCGGACTC", "PBM E-score": -0.0383}
{"sequence": "CAGTGCGA", "PBM E-score": -0.0982}
{"sequence": "CCGAAGCC", "PBM E-score": -0.254}
{"sequence": "ATAGTCGG", "PBM E-score": -0.291}
{"sequence": "GGCGCGGA", "PBM E-score": 0.0771}
{"sequence": "ACGTCCCC", "PBM E-score": -0.0726}
{"sequence": "AGTGTGAC", "PBM E-score": -0.0574}
{"sequence": "CAGTAGGG", "PBM E-score": -0.176}
{"sequence": "ACAGTAGA", "PBM E-score": 0.0868}
{"sequence": "ATCCTAGA", "PBM E-score": -0.0572}
{"sequence": "AGGGTACG", "PBM E-score": -0.0843}
{"sequence": "GCCGGTCC", "PBM E-score": -0.186}
{"sequence": "GCAGAGAA", "PBM E-score": -0.0727}
{"sequence": "CCGGGGAA", "PBM E-score": -0.0992}
{"sequence": "CGCGAGCC", "PBM E-score": 0.0932}
{"sequence": "AATGGAAA", "PBM E-score": 0.24}
{"sequence": "CGGCTCAC", "PBM E-score": -0.0168}
{"sequence": "AGTCCGAT", "PBM E-score": -0.00525}
{"sequence": "AATCACAA", "PBM E-score": 0.0518}
{"sequence": "GTCTCAAC", "PBM E-score": 0.129}
{"sequence": "AAGGGCAT", "PBM E-score": -0.154}
{"sequence": "AGCGGTAC", "PBM E-score": -0.187}
{"sequence": "AAAGGATA", "PBM E-score": 0.19}
{"sequence": "ATTGAGAG", "PBM E-score": -0.0617}
{"sequence": "ACTGGTCA", "PBM E-score": -0.142}
{"sequence": "GATTATAA", "PBM E-score": 0.23}
{"sequence": "ATATAGGG", "PBM E-score": 0.00617}
{"sequence": "GTCGCCCA", "PBM E-score": -0.101}
{"sequence": "CACACTGA", "PBM E-score": -0.215}
{"sequence": "CTCACGCC", "PBM E-score": 0.0411}
{"sequence": "GTACAGAA", "PBM E-score": -0.0717}
{"sequence": "GGGAGACC", "PBM E-score": -0.223}
{"sequence": "GTGATGTA", "PBM E-score": 0.0612}
{"sequence": "AACCCGCC", "PBM E-score": 0.0991}
{"sequence": "GGTTAAAA", "PBM E-score": 0.256}
{"sequence": "ACACGTAA", "PBM E-score": -0.00152}
{"sequence": "CTACTACC", "PBM E-score": 0.0108}
{"sequence": "TGCCTTAA", "PBM E-score": -0.0177}
{"sequence": "CCGAGCGC", "PBM E-score": 0.0289}
{"sequence": "AATTGTTC", "PBM E-score": 0.193}
{"sequence": "TAGTCTAA", "PBM E-score": -0.00981}
{"sequence": "CCTAAACA", "PBM E-score": 0.247}
{"sequence": "ATATCCAA", "PBM E-score": 0.101}
{"sequence": "GCAAGGCC", "PBM E-score": -0.0689}
{"sequence": "CGCTAACG", "PBM E-score": 0.109}
{"sequence": "TTCTCCAA", "PBM E-score": 0.187}
{"sequence": "GAAAGGGC", "PBM E-score": -0.164}
{"sequence": "AAGACAAG", "PBM E-score": 0.0417}
{"sequence": "AATCGATC", "PBM E-score": 0.0401}
{"sequence": "GCAAGTAC", "PBM E-score": -0.0853}
{"sequence": "CTGAGTCC", "PBM E-score": -0.263}
{"sequence": "AGATGTGG", "PBM E-score": -0.152}
{"sequence": "AGCATGAC", "PBM E-score": -0.0535}
{"sequence": "CTTGTCAC", "PBM E-score": 0.00511}
{"sequence": "CGTGGGTA", "PBM E-score": -0.106}
{"sequence": "CCTATGCC", "PBM E-score": -0.0377}
